Laboratory results from publication PMC6919601, “Identification of Plasmodium dipeptidyl aminopeptidase allosteric inhibitors by high throughput screening” (PLoS ONE, 2019).
Several values for one entry are separate records, joined by “and”; a condition that tells them apart may be missing. Equal entries are not always repeated. About 230 (0.21%) of roughly 110,000 compounds showed an effect of 50% or more. The list shows a part of the results.

What follows are compounds tested against DPAP1 (Plasmodium falciparum, UniProt Q8IIJ9) (assay: primary screen, percent inhibition; read by cleavage of a fluorogenic dipeptide substrate; higher = more effect of the substance).
Design: species or system P. falciparum D10 trophozoite lysates; single well
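Also: 30 min substrate incubation versus DMSO and 10 µM JCP410 controls.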

DPAP1, sequence (Q8IIJ9 whole entry, looked up): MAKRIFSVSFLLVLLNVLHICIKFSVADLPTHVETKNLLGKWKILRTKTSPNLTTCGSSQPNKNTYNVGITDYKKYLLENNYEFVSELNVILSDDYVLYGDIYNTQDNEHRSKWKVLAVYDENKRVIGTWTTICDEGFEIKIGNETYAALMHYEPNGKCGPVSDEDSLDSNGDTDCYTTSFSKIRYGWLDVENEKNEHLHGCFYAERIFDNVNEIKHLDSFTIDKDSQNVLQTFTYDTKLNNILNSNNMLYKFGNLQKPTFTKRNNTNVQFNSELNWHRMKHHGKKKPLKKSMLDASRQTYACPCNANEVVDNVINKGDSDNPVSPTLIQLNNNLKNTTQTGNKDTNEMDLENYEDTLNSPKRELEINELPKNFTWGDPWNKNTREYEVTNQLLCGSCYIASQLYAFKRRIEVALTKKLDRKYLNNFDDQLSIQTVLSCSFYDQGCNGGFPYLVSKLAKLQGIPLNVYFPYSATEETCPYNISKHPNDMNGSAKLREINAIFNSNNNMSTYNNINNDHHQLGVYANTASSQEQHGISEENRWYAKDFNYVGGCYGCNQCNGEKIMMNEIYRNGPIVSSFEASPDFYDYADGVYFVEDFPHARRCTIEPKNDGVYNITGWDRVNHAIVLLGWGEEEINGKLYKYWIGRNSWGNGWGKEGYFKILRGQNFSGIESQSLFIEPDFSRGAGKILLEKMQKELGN

| Compound | % Inhibition @ 10 uM |
| --- | --- |
| CCOc1cccc2cc(-c3csc(NC(=O)CCC(=O)NCCCN4CCCC4)n3)c(=O)oc12 | 9.17% |
| N#CC1=C(N)Oc2c(c(=O)oc3ccccc23)C1c1ccccc1OCc1ccccc1Cl (stereo not shown) | 10.8% |
| O=C(OC[C@@H]1CCCN2CCCC[C@H]12)c1cccc(Br)c1 | -3.82% and -4.01% |
| CCCCC(=O)NC1(C(F)(F)F)NC(=O)N(C(C)c2ccccc2)C1=O (stereo not shown) | 0.221% |
| O=C(Nc1ccc(N2CCOCC2)cc1)c1sc2ccccc2c1Cl | -4.03% |
| CC1CC(C)CN(CCCn2cnc3c4ccccc4nc-3c2O)C1 (stereo not shown) | -0.0235% |
| CC(C)C(NC(=O)c1ccc(N(C)S(C)(=O)=O)cc1)C(C)C | 2.48% |
| Cc1ccc(Nc2nc(-c3ccccc3)cs2)cc1 | -5.44% |
| COc1ccc(CCNC(=O)c2nnc(Cc3ccc(Cl)cc3Cl)o2)cc1OC | 10.5% |
| CCOC(=O)N1CCN(C(=O)c2ccc3c(c2)sc2nc(-c4ccc(F)cc4)cn23)CC1 | -5.15% |
| O=C1N=C(N2CCCC2)S/C1=C/c1cccc(Cl)c1 | 3.53% |
| C=CCNC(=O)c1ccccc1NC(=O)CN(c1cc(C(F)(F)F)ccc1Cl)S(C)(=O)=O | -8.58% |
| Cc1ccc(CCN2CC(C(=O)NC(C)C)CC2=O)cc1 (stereo not shown) | 1.62% |
| Cc1ccc(OCC(=O)N2CCN(c3ccccn3)CC2)c(Br)c1 | -5.08% |
| Cc1cc(O)nc(Nc2nc(C)c3cccc(C)c3n2)n1 | 7.54% |
| Cc1cc(C)nc(Nc2nc(-c3ccc(O)c(O)c3)cs2)n1 | 0.627% |
| Cc1ccc(S(=O)Cc2ccc(C(=O)NCc3ccco3)o2)cc1 (stereo not shown) | -3.09% |
| CC(CCN1CCC(C(N)=O)CC1)c1ccccc1 (stereo not shown) | -0.274% |
| CCOC(=O)c1conc1-c1ccc(OCC)cc1 | -2.18% |
| Cc1ccc(C2=CC(c3ccccc3OC(F)F)n3ncnc3N2)cc1 (stereo not shown) | -8.88% |
| CCCC/N=c1\sc(C(=O)OC)cc(=O)n1CCCC | -1.7% |
| Cc1nc2ncnn2c(C)c1CCC(=O)NC(C)CCc1ccccc1 (stereo not shown) | -0.465% |
| O=[N+]([O-])c1ccc(CN2CCCCCC2)s1 | 4.67% |
| CC(C)(C)c1ccc(C2=N/C(=C\c3ccccc3F)C(=O)O2)cc1 | -8.77% |
| CC(C)OCCCNC(=O)c1csc2c1CCCCC2 | -5.05% |
| Cc1nn(-c2ccccc2)c(C)c1C(=O)N1CCN(C23CC4CC(CC(C4)C2)C3)CC1 | 3.24% |
| O=C(CC1Sc2ccccc2NC1=O)Nc1cccc(Cl)c1 (stereo not shown) | -2.56% |
| COC(=O)CCN1CCN(c2ccc(Cl)cc2)CC1 | -8.85% |
